# Results reported in the supplement of paper PMC12632987.
# Whole data set: some 2,300 sequences, median “median log2 fold change of GCK-ALFA target abundance (FLAG IP / Myc IP barcode read proportion)” near 0.095, cut for the lowest 2% near -0.47. Some of the results follow.
# B1: LC3A_147_393 (protein)
# chain: YKLVIEIDLIVKNAEEEIIKEIEELVEELKKKGYEVELKIEKEKIDENTTYIRITITIKAETKEKAQEAQNYVLDKLDKIEEKYKDKILGSLISSEIIEE
# B2: LC3A_17_533 (protein)
# chain: SEELRKELERLLKELEEVAKRFIELAPEKAEEVNAAVEKVKKALEAGDLRAAAEELEKAARTIADLIDETEFEDEVEKEVLLMEANGVELEAIGLLLKLE
# B3: LC3A_free_46_2308 (protein)
# chain: VRAEILIDLLHEDEEVLKKAVEEIVKKIKEIAKKYGLKVKIEVSFSKDEDGSYFAEIKVILEGEDLEKLKEAVDEIIDGIDEIAEKYGVSYIISVEIIEE
# B4: LC3A_78_2080 (protein)
# chain: MKVAIIAHEPSAKEEAEKEAEKLTDADEIIITDISKLEEEVKKYKDADEIEVYIHADTLDKVDEAVEKVKEILKDYKISEIIEYDEETGHYTGYIIAKKK
# B5: LC3A_132_238 (protein)
# chain: SEELLEEIRKKIEELLKKIEENIDNLEKVKELVAELRELLERAEKELSPEDTLELAEETAERLDKLREKAEEAGKEEVAQQLENASMYADGIAIEAELKL
# B6: LC3A_free_8_2475 (protein)
# chain: AVQALVDQITAELDKLEEEATKLAKELGVDELDILELELEIGSAIAELISASDESIEEVRKVAEEEMKEIKEIAKELGEEIAKLVEETEKKILALIDAAE
# B7: LC3A_3_1809 (protein)
# chain: MEERLEEVIKLLKEAGHSQETIDAFKKAYEALKKKGYEKTLETLLELAEKNIDLPSELMLEMFNDVLELVETSDLSEEEITKKVKEIAKTYENESEIIEL
# B8: LC3A_147_433 (protein)
# chain: WKVEVDIDILTKDAEEEILKYFKELEEELKKKGYKVELNIEVEKLEDGTTYINIKIIIEAKTKEEAEEAANYVIDKIDELVEKLKDKILGSIISVEIIKK
# B9: LC3A_23_628 (protein)
# chain: MYKVTVTVDVIGSPEEIEKKTKELKEKIEELVEKYKDKIKEYEIKVEKEKLPDGQTFATITITIITDGDLETAQEIANEVTSIASEVFPDGVISVEIEKL
# B10: LC3A_28_881 (protein)
# chain: SAALASAEAALAEVKAAVAAGDTSPLVLTVKAPSTEEDAERFLALLEELAAEASKLPGVTIIIDIDESVSQELRDRIIDKAEELEEKYPNVTIIIALSEE
# B11: LC3A_28_873 (protein)
# chain: SRVDERVEAARKEAEEQAKEGEDIVVEVEVDSSMSLEEAVELMKRVLEMAREFVEKTGLKVTIVVDFDGSQETLDALLELAEEAEEENPKITVIFAISEE
# B12: LC3A_free_8_2484 (protein)
# chain: ASEKVANELSEALSEMEEELVKKAKELGKSRLDILELELEIGAAIAEVISLRDESVEKIAEATKESLEEILELAKELGEEIYKLAKEKAEKIRELAEKAL
# B13: LC3A_147_471 (protein)
# chain: VKVIVDIDILTKNAEEEVIEKIKEIVEELKKKGYKVELEIETEKLPDGTTYIKVKITIYAETKEEGEKAANEVIDKLEELEEELKDKILGSIISVEIIEE
# B14: LC3A_3_1841 (protein)
# chain: LEELREEAIAALKAAGHSQETIEAFLAALEALLARGYEEAARTFIELMLENIDMPDELLLALARDVLAYVETTDDSEEEVTARIRELARLYRNEYEIEEL
# B15: LC3A_78_2090 (protein)
# chain: MKTIVVYTSEKVKPEAEKLAKKITNADEVLLVEAEDLEKELKKYENEEEVDVIIVAETLEEVEELIEKVKEIFKDHKVSSIIEIDEETGIYIGYILVEKK
# B16: LC3A_127_211 (protein)
# chain: EKEKLLKEALELARKALEAAQKIPEKGEEARKEAEELLKKLIEVLKKIPSLKESLEDAEQALEIAKKMPELNEAEREEAREHIEMILSGIEIDVELELLK
# B17: LC3A_45_1937 (protein)
# chain: MYLATIDLIVPRELAEEALALAEEIARELEEENDGKVEVDLETLRESYEATRDEEDVLLVVKIYAETEELALDVADRLVDRLRAALGPRVAAIISVEEVP
# B18: LC3A_3_1895 (protein)
# chain: LEEELKETLEELKKAGASEEVLKLFKEVYEELLKRGYEEAARTLIEEMKKLKDASDEILKWFLEEVLEVIKTEDLNEEELIERIREIARTALNESEIEEL
# B19: LC3A_3_1801 (protein)
# chain: MEEKIEELLEELREAGKSEETIEAVREALELLKERGFEEALEVFIEELRKLIDAPDELILELAEEVLELLKNEDLSEEEVIERIKELARLALNESEIEEL
# Biological target: MAP1LC3A, Q9H492
# Assay: median log2 fold change of GCK-ALFA target abundance (FLAG IP / Myc IP barcode read proportion) (log2 ratio); each designed protein is fused to an ALFA-tag nanobody in HEK293 cells to bring the named protein to FLAG-tagged glucokinase (GCK); Myc marks an untargeted standard; higher = target protein stabilised (more abundant)
# Details: target protein: 3xFLAG-MCP-GCK-ALFA reporter; HEK293 landing pad (RPLP)
# Method in brief: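 The readout is target abundance, the per-binder median log2 ratio of FLAG to Myc barcode read proportions. It came from HEK293 landing-pad cells carrying a recombined ALFA-nanobody-fused binder library, induced with 2 μg mL^−1 doxycycline and transfected with a plasmid for a FLAG-tagged target and a Myc-tagged standard. After 48 h, lysates were immunoprecipitated with anti-FLAG and anti-Myc, and circular RNA barcodes were reverse transcribed, amplified and sequenced. Each barcode needed a proportion of at least 10^−7 in both replicates and each binder at least 3 barcodes per replicate, a pseudocount of 10^−6 was added, and the replicates were pooled.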
row,Binder,median log2 fold change
1,B1,0.233
2,B2,0.24
3,B3,0.0974
4,B4,0.218
5,B5,-0.13
6,B6,-0.0791
7,B7,0.116
8,B8,-0.342
9,B9,0.152
10,B10,-0.0723
11,B11,0.0922
12,B12,-0.0489
13,B13,-0.00582
14,B14,0.283
15,B15,-0.0376
16,B16,0.265
17,B17,-0.359
18,B18,0.242
19,B19,0.225
